Reference: the supplement of paper PMC7826260
The other results are listed elsewhere or left out. Viral Rep nickase domains cut single-stranded DNA in vitro at 3 µM enzyme and 37 °C for 1 h; the strands have 90 letters, of which the middle is given. Uncut reads are compared with the no-enzyme pool on a log2 scale; strong cutting gives strongly negative numbers. There is no active / inactive call. Reads are scaled to the total, so uncut sequences can rise above 0 when many others are cut.

Experiments:
Experiment in all cases: uncleaved DNA left, log2 of reads against the no-enzyme library (log2 ratio); higher = less cleavage (more negative = more Rep cleavage of the k-mer); sequences stand for … in CTCGTCCG…ACCGGAGA
[1] = system: T1, Rep nickase domain of Muscovy duck circovirus
T1 sequence (residues 1-111 of Rep, tag left off): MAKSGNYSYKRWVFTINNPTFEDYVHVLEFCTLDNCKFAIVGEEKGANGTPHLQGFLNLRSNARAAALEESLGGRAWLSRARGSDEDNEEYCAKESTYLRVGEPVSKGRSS
Description: (§1)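 A pool of 90-nt single-stranded DNAs with seven random bases just before the constant AC of the nick site (name = the seven bases) was cut by 3 µM recombinant His6-SUMO-tagged Rep nickase domain (300 nM DNA, 50 mM HEPES pH 8.0, 50 mM NaCl, 1 mM MnCl2, 1 h, 37 °C, three replicates). Uncut DNA was amplified and sequenced.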

[2] = system: T2, Rep nickase domain of banana bunchy top virus
T2 sequence (residues 1-94 of Rep, tag left off): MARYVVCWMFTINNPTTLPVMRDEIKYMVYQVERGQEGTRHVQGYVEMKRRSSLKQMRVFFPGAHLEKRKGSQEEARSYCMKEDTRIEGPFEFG
Description: as §1

[3] = system: T3, Rep nickase domain of cabbage leaf curl virus
T3 sequence (residues 1-116 of Rep, tag left off): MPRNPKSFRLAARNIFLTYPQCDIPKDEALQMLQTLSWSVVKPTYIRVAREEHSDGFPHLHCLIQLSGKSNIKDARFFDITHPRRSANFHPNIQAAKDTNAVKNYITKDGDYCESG
Description: as §1

[4] = system: T4, Rep nickase domain of chickpea chlorotic dwarf virus
T4 sequence (residues 1-124 of Rep, tag left off): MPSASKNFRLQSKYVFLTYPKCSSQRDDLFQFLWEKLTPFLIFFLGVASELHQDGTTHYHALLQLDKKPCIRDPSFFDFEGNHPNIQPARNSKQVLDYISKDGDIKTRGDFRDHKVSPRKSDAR
Description: as §1

[5] = system: T5, Rep nickase domain of faba bean necrotic yellows virus
T5 sequence (residues 1-98 of Rep, tag left off): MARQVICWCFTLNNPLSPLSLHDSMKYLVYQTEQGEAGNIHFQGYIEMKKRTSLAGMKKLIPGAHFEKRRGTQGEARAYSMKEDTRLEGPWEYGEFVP
Description: as §1

[6] = system: T6, Rep nickase domain of maize striate mosaic virus
T6 sequence (residues 1-117 of Rep, tag left off): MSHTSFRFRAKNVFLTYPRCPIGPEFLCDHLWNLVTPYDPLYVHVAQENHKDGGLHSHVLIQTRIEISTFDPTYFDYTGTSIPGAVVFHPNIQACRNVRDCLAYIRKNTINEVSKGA
Description: as §1

[7] = system: T7, Rep nickase domain of porcine circovirus 2
T7 sequence (residues 2-116 of Rep, tag left off): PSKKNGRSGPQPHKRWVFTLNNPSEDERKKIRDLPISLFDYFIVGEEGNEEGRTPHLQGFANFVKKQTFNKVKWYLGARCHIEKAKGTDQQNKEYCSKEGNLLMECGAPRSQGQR
Description: as §1

[8] = system: T8, Rep nickase domain of tomato yellow leaf curl virus
T8 sequence (residues 1-136 of Rep, tag left off): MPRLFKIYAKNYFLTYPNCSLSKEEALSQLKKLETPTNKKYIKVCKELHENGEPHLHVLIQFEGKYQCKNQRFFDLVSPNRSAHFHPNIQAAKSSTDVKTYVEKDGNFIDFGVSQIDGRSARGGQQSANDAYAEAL
Description: as §1

[9] = system: T9, Rep nickase domain of wheat dwarf virus
T9 sequence (residues 1-137 of Rep, tag left off): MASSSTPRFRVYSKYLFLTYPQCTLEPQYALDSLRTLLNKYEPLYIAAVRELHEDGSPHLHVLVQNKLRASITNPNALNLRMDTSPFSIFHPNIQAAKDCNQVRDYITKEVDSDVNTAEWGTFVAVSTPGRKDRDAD
Description: as §1

Sequence	uncleaved DNA left (log2) [1]	uncleaved DNA left (log2) [2]	uncleaved DNA left (log2) [3]	uncleaved DNA left (log2) [4]	uncleaved DNA left (log2) [5]	uncleaved DNA left (log2) [6]	uncleaved DNA left (log2) [7]	uncleaved DNA left (log2) [8]	uncleaved DNA left (log2) [9]
ACCACGG	-0.069	-0.0595	-0.184	0.168	-0.0184	-0.416	0.0771	-0.0997	-0.0791
TCATCTG	-0.0626	-0.099	-0.118	0.187	-0.0866	0.138	0.0112	-0.0833	-0.0207
GCGCCGT	-0.028	0.0706	-0.0674	-0.0584	-0.0294	-0.244	-0.0634	-0.0583	0.0838
GTCCGCG	-0.0223	0.0166	-0.411	-0.24	-0.0564	-0.328	0.0519	-0.128	-0.0937
CACGGAT	-0.0622	-0.218	0.135	1.41	-0.181	1.66	0.0431	-0.224	-0.153
CTCCACC	-0.0745	-0.0538	-0.0426	-0.526	-0.073	-0.51	-0.207	-0.052	-0.126
CAGGCGA	0.101	-0.0838	-0.609	-0.516	0.0512	-0.636	0.134	0.054	-0.0124
GAGTATC	-0.126	-0.0271	0.268	0.587	-0.565	1.02	-2.47	0.0979	0.12
CCGGTGC	0.0407	-0.138	-0.242	-0.292	0.043	-0.486	0.0884	-0.02	-0.041
CGGGACT	-0.0253	0.154	0.856	1.99	0.000183	2.33	0.209	-0.0173	0.0646
CACAGAC	0.152	0.102	0.161	0.255	0.0408	-0.427	0.324	0.109	0.0882
ACTCGTT	0.0971	-0.109	-0.282	-2	-0.0135	-0.809	-1.37	-0.0739	-0.179
TACAAGT	0.0482	0.0328	-0.148	-1.56	0.053	-0.796	-1.22	0.13	-0.014
TCGCGGA	0.0815	-0.0547	0.0214	-0.0822	0.0501	-0.421	-0.0391	0.0518	0.0147
CCTCCCA	-0.194	-0.143	-0.0481	-1.12	-0.206	-0.432	-0.466	-0.142	-0.201
